# Measurements taken from the supplement of paper PMC11417369.
# ± gives the standard deviation of the averaged measurements. Some of the results follow.
# System: PfAP2-EXP AP2 domain (GST-tagged)
# Assay: gcPBM binding intensity (ln(normalized median fluorescence intensity)); higher = stronger DNA binding
# Summary of the method: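 Binding intensity values are the highest Masliner-normalised natural-log median intensity among replicate spots of either probe orientation. The binding step lasted 1 h in 1× PBS with 1% milk, 0.2 mg/ml BSA, 0.5% salmon testes DNA and 0.03% Triton X-100, using GST-tagged P. falciparum DNA-binding domains expressed in E. coli on an Agilent 4 × 180k array of primer-extended double-stranded 36-bp intergenic genomic probes plus negative controls. Alexa488 anti-GST antibody and a 488 nm scan detected bound protein.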
row,Sequence,gcPBM binding intensity (ln)
1,TTTTATGAGAAACACACACACAAAAAAAAAAAAAAA [CACACA_site4129],8.28 ± 0.58
2,AGTGGATAAATTTATTCACACATTTTTTTTTTTTTT [CACACA_site5914],8.33 ± 0.24
3,TCTTACTAATTTATGGGGACTTATCACCTATTCAGT [CACACA_negctrl_site652],8.6 ± 0.43
4,CATGAATCCTAATAATGTACATAAGAATTCATAATG [XGTACX_site1607],8.41 ± 0.41
5,AACAAAGTCATACATACATACATATATATATATATA [GTGCAC_negctrl_site632],10 ± 0.37
6,TCAATAATAAAAAACACACACAAAAAAAAATAATTA [CACACA_site2798],8.43 ± 0.62
7,TATTGTATTTCATATTGTACTAAAAAAAAAAAAAAG [XGTACX_site6694],8.31 ± 0.37
8,ATAATACATACATACATACACACATATATATATATT [CACACA_site3576],8.79 ± 0.49
9,TATATTATTTATAGTAGTACATAAAATATAAATATT [XGTACX_site4417],8.23 ± 0.36
10,AAAAAAAAAAAAAAAACACACATACACATATATTTT [CACACA_site7768],8.62 ± 0.19
11,TAAAAAAAAAAAAAAACACACATATAAATATTTATA [CACACA_site6702],8.2 ± 0.51
12,AGTAAAAAAAAAAAAAAAAAAAAAAAAAAAAAAAAA [GTGCAC_negctrl_site147],8.09 ± 0.27
13,TATTAATATTTTTGTTGTACTTAAAAATGATGGTAG [XGTACX_site3501],8.78 ± 0.16
14,CATATACACGAACACACACACATATAAATAAATATA [CACACA_site6379],8.73 ± 0.46
15,TATTATTTTAATTATTCACACATTATTATAAAAATT [CACACA_site5538],8.3 ± 0.33
16,GGAATATTAAAAAAATGTACAAAAAATAATATCCAT [XGTACX_site2596],8.97 ± 0.36
17,TTACAATTTAATATATGTACATATTTGTGATTTATC [XGTACX_site2911],8.48 ± 0.37
18,TATATATATTAAAAAGTGCATTATTCATATTATATA [GTGCAC_site9400],8.52 ± 0.11
19,TATAATGTTAAATAATGTACATATATTTTTTTTTTT [XGTACX_site4722],8.19 ± 0.41
20,AAAATATCTTGTTACTGTACAAATATAAATAAATAC [XGTACX_site3684],8.62 ± 0.23
21,TTTATTAATAATTATACACACATATAAAATGAATAA [CACACA_site1359],8.46 ± 0.47
22,AATAATAACATACAGACACACACGTAAAAGCACGTG [CACACA_site253],8.71 ± 0.39

row,Sequence,gcPBM binding intensity (ln)
1,TTTATATATTAATATGCACACACAAGAAGTAATTAT [CACACA_site9045],8.96 ± 0.35
2,ATATATACGTATGAATGTATATTTGTTTGAATTTTT [CACACA_negctrl_site524],8.41 ± 0.86
3,AATGGGTAAACATACACACACACATATATATATATA [CACACA_site1991],10.1 ± 0.33
4,TTTTTTTTTGAAAAAAGTACTTAATTTTTAAGAAGA [XGTACX_site3591],8.07 ± 0.31
5,TCTAATAATAAATACACACACATATATATTTATATA [CACACA_site5169],8.15 ± 0.32
6,GTCAACAAGAATTAAGTGCATAATTTTTTATTAAAT [GTGCAC_site9492],8.47
7,AAATTTTATGTATAATGTACACATAAATTTTTCTTT [XGTACX_site7266],8.32 ± 0.34
8,ATGTCAAGAACTGAACGTACAAACTTTGTAATATTG [XGTACX_site8754],8.62 ± 0.45
9,AGTAATAATCGGCATGCATGTCAGTGGTAGTATATA [TGCATGCA_site312],9.3 ± 0.53
10,ATACAGATAGGATGCACACATAATTCAAATACAATA [CACACA_site4531],8.69 ± 0.45
11,ATATAATAATAATATTGTACAATAAAAAATATATAT [XGTACX_site7350],8.81 ± 0.4
12,AAGGAATGCATATAGGTGCTACACATAAAAATAAAA,9.13 ± 0.69
13,TACTTTTTTCCTATTATGTTTCTTATTTTTATAAAT [XGTACX_negctrl_site561],8.89 ± 0.6
14,TTAAGTAGTACATACACACACATATACAAAAAGAAA [CACACA_site3972],9.06 ± 0.35
15,TCTTATATATTTATTTGTACATATATATATATATAT [XGTACX_site7214],10.1 ± 0.33
16,AACAACTATTAATTTACACACATGTATTTATTTTAC [CACACA_site5683],8.73 ± 0.4
17,AATAAGATATCTACAACACACATTTAATTTTTTTTT [CACACA_site1641],8.31 ± 0.38
18,AATCATAAAGAACATATAATATATATATATATATAT [CACACA_negctrl_site316],10.1 ± 0.21
19,AATGCATTGATTGCATTCAAAAAAAAAAAAAAAAAA [XGTACX_negctrl_site597],8.11 ± 0.47
20,ATAAAAAAATAAAACACACACATATATATTATATAT [CACACA_site2810],8.53 ± 0.26
21,TAAATAAAAAAACACACACACATATATATATATATA [CACACA_site2269],10.2 ± 0.25
22,AATTGTCAGAGAATATGTACTTAAGTATTTATTGTT [XGTACX_site1947],8.52 ± 0.4
